Laboratory results reported in ChEMBL document CHEMBL4888484, “Replenishing the malaria drug discovery pipeline: Screening and hit evaluation of the MMV Hit Generation Library 1 (HGL1) against asexual blood stage Plasmodium falciparum ,using a nano luciferase reporter read-out” (2022).
The campaign covered roughly 150,000 compounds. About 540 (0.36%) showed an effect of 50% or more. This is one part of the list.

system: Plasmodium falciparum; assay: Primary screen in NF54 nanoGlo assay, in single point, at 2uM, 72h; a lower Z score goes with more inhibition; type: functional, Erythrocyte; details: timepoint 72 hour

Compound | % Inhibition | Z score
O=C(N[C@H]1CCOC[C@@H]1O)c1cc(Cl)c[nH]c1=O | -11% | 1.23
CCn1cc([C@H](CC(=O)NCCC(C)C)c2cccc(F)c2)c2ccccc21 | 8% | -1.07
FC(F)Oc1cccc(CN2CC[C@H]3[C@H](C2)OCc2cnnn23)c1 | -7% | 1.03
COc1cc(C(=O)NCC(F)(C(F)(F)F)C(F)(F)F)sn1 | 13% | -1.53
Cc1cccnc1CC(=O)N1CCNC(=O)C12CCCC2 | -14% | 1.29
CN(C)c1cc(OCC2(O)CC(N(C)C(=O)CCC3CCC3)C2)ncc1-c1ccccc1 (configuration not stated) | -14% | 2.65
Cc1ccccc1Oc1nc(-c2ccccc2)cc(C)c1S(=O)(=O)c1ccc(Cl)cc1 | 8% | -1.19
CN1CCC(CCO)(NC(=O)c2ccnc3cc(Cl)ccc23)CC1 | -13% | 2.43
O=S(=O)(c1ccccc1)N(c1cccnc1)S(=O)(=O)c1ccccc1 | 32% | -3.6
Cc1nn(-c2ccccc2)c2nc(C(=O)N[C@H]3CCCOCC3)ccc12 | -13% | 1.32
Cc1cccc2c1CCCN2C[C@@H]1CCC(=O)N1 | 3% | -0.3
Cc1cccc(CC(=O)N2CC[C@H](n3nccn3)C2)c1 | -4% | 0.52
CC(C)(NS(C)(=O)=O)C(=O)NC1CC(OCc2ccccc2)C1(C)C (configuration not stated) | -7% | 1.32
O=C(O)[C@H]1CN(Cc2cc(F)ccc2F)CC12CCC2 | -8% | 1.12
Cc1c(C(C)NC(=O)N2CCCC2c2cccs2)cnn1C (configuration not stated) | -2% | 0.28
COc1ccc([C@@H]2CCCN2C(=O)CCc2cscn2)cc1OC | -4% | 0.72
C[C@@H](C(=O)Nc1cccc(O)c1)c1ccc(Cl)s1 | -5% | 0.42
C[C@H]1CN(c2ncncc2Br)CCC1=O | 8% | -1.48
O=C(CCc1ccc(Cl)c(C(F)(F)F)c1)N1CC[C@H](Oc2cccc3cccnc23)C1 | -12% | 2.2
Cc1[nH]nc(CCC(=O)NCCCn2ccnc2)c1C | -16% | 1.59
Cn1c(OCC2CCOCC2)nc2ccccc21 | -7% | 1.46
O=S(=O)(CC1(F)CC1)Nc1cccc(Oc2ccccc2)n1 | -7% | 1.31

Compound | % Inhibition | Z score
CCN(CCN1CCCCCC1)Cc1nccn1C | -3% | 0.42
Fc1cccc([C@@H]2C=C(c3cccnc3)Nc3nc(C(F)(F)F)nn32)c1 | -5% | 0.98
COC1CCN([C@H]2CCC[C@H]2NC(=O)Nc2ccc(-c3nccc(C)n3)cc2)C1 (some centres not stated) | -15% | 1.99
Cc1csc(CNC(=O)Cn2nnc3ccccc32)n1 | -2% | 0.32
Cc1cc(F)cc(C(=O)OCCC(=O)N(C)C)c1 | 29% | -3.29
CCn1ccnc1CNC(=O)c1cc(COc2ccc(F)c(F)c2)on1 | -4% | 0.49
Cc1c(S(=O)(=O)NC(=O)CC2=CCCCC2)cnn1C | -13% | 2.47
O=C(CCCn1cnnn1)N1CCC2(CC1)c1ccccc1C[C@@H]2O | 4% | -0.52
c1nnc(C(NCC2CC3CCC2C3)C2CCCCC2)[nH]1 (configuration not stated) | -5% | 0.77
CC(C)Cn1ncnc1COC(=O)c1cccnc1 | 37% | -0.9
COc1cccc(C(=O)N2CCC[C@@]3(C2)Nc2cccnc2N=C3NCc2ccccc2)c1 | 36% | -4.04
CC(C)N1CCn2c(nc3cc(C(=O)NCc4ccc(F)c(Cl)c4)ccc32)C1=O | 7% | -0.96
CCC[C@@]1(C)CCCN(C(=O)c2ccnc(C(=O)OC)c2)C1 | -11% | 0.96
CC(C)c1nnc(N2CCn3nc([C@H](O)c4nccn4C)cc3C2)s1 | -17% | 1.82
CN(C)c1cc(C(=O)N(CC(F)F)C2CC2)ccn1 | -8% | 0.77
Cc1cc(C)nc(NC(=O)N(C)Cc2nccs2)c1 | 7% | -1.07
O=C(CCc1cccnc1)NC(Cc1ccncc1)[C@H]1C[C@H](O)C1 (some centres not stated) | -9% | 1.65
CC(C)(C)S(=O)(=O)[C@H]1CCN(C(=O)CCc2ccc(Cl)c(Cl)c2)C1 | -10% | 1.7
CC[C@H](NC1CCN(Cc2ccco2)CC1)c1ccnn1C | 14% | -1.75
COCCC1CCN(C(=O)c2ncc[nH]2)CC1 | -7% | 0.86
C(=C\c1ccccc1)/CNCCN1CCOCC1 | 8% | -1.11
C[C@H](Nc1ccc(Br)cc1)C(=O)NC(=O)NC1CCCCC1 | 4% | -0.77

Compound | % Inhibition | Z score
Cc1cc2[nH]c(C(=O)NCc3ccc(N4CCOCC4)cc3)c(CN3CCCC3)c2s1 | -10% | 0.93
COc1ccc(N2CCN(C(=O)C[C@H](C)S(=O)(=O)c3ccc4c(c3)NC(=O)CO4)CC2)cc1 | 6% | -0.73
CCOC(=O)CNC(=O)C1CCCCC1 | -6% | 0.96
C[C@@H](Cn1cnc2ccccc2c1=O)NCCCn1cc(Cl)cn1 | -9% | 1.39
Cc1c(-c2ccc(O)cc2)nc2nc(-c3ccccc3)c(-c3ccccc3)nn12 | -8% | 1.01
CC(C)(C)OC(=O)NCC1CCN(c2nnnn2CC2CC2)CC1 | 1% | -0.11
COCCCn1c(C)cnc1CC1CCN(C(=O)c2ccoc2)CC1 | -13% | 1.89
Cc1noc(C2CCN([C@@H](C)c3nnnn3C3CC3)CC2)n1 | -2% | 0.24
O=C(CNC(=O)Nc1ccc(Cl)cc1)N[C@H]1CCS(=O)(=O)C1 | -2% | 0.4
CC[C@H](NCc1c(C)nc2scc(C3CC3)n12)c1ccncc1 | -4% | 0.52
Cc1[nH]nc(C(=O)N2CCCC3(CCCCO3)C2C#N)c1C (configuration not stated) | -6% | 0.6
Cc1ncsc1C(=O)NCCc1ccc2c(c1)OCO2 | 2% | -0.41
CCc1cnc(C)nc1-c1cccc(C(=O)N[C@@H](C)c2nnc(N)s2)c1 | -10% | 1.86
COc1ccccc1C(=O)N1CCN2[C@H](CN(C(=O)NCc3ccccc3)CC2(C)C)C1 | 1% | -0.18
NC(=O)c1c(NC(=O)CS(=O)(=O)Cc2ccccc2)sc2c1CCC2 | -10% | 1.94
CN(C)c1nc2c(c(N3CCC(n4c(=O)[nH]c5ccccc54)CC3)n1)CCNC2 | -7% | 1.39
Cc1nc(C)c(C(=O)NC2CC3CCC(C2)S3(=O)=O)s1 (configuration not stated) | -5% | 0.6
Cc1cc(N(C)C)nc(CNC(=O)Nc2ccccc2)n1 | 2% | -0.35
CN(c1ccn(C)n1)S(=O)(=O)c1c(Cl)ccc(F)c1F | -5% | 0.89
CC(C)[C@@H]1CN(C(=O)CCc2cnccn2)CCCN1Cc1ccc(F)cc1 | -4% | 0.91
C[C@@H](C(=O)N1CCc2[nH]c(-c3ccccc3)nc2C1)N1CCCCCC1 | -10% | 1.87
CCCc1nc(CN2C(C)CC(C(=O)O)CC2C)cs1 (configuration not stated) | -16% | 2.22

Compound | % Inhibition | Z score
CCN(CC)c1ccc(NC2=NS(=O)(=O)C(c3ccccc3)=C2C)c(C)c1 | -6% | 0.84
CN1C(=O)c2ccc(NC(=O)[C@@H]3CCCO3)cc2C1=O | -12% | 1.34
CC(C)(c1ccc(C(=O)N[C@H]2CC[C@@H](CO)C2)cc1)C(F)(F)F | -14% | 1.94
Cc1nc(CC(=O)N2C[C@@H](F)C[C@H]2CNC(=O)N2CCCC2)cs1 | 5% | -0.86
Cc1ccc2c(OC(=O)c3ccnn3C)cccc2n1 | -9% | 1.05
O=C(NOC1CCCCO1)NC1CCOC1c1ccc(Cl)cc1 (configuration not stated) | 38% | -1.11
Cc1ccc(-c2c(C)sc3nc(CO)cn23)cc1C | -1% | 0.12
Cc1cccc(C2=CCN(C(=O)NCc3cnnn3C)CC2)c1C | 2% | -0.2
CC(O)C1CCN(C(=O)NCc2ccc3c(c2)CCC3)C1 (configuration not stated) | -10% | 1.24
C[C@@H]1CN(C(=O)C(C)(C)N2CCCC2)CC[C@@]1(O)C1CCOCC1 | -6% | 0.98
CN1CCN(C(=O)c2ccccc2N2CCC(NC(=O)CC(C)(C)C)CC2)CC1 | -10% | 0.99
CCC(CC)C(=O)Nc1nc(C)c(C(=O)N(C)C)s1 | -10% | 1.43
CNc1nc(C(=O)NCc2nc(-c3ccc(F)cc3)c[nH]2)cs1 | -15% | 1.53
COc1ccc(C(=O)N(CCC(=O)N2CCNCC2)CCC(C)C)cc1 | 6% | -0.83
CCc1ccc(-c2nccn2C[C@H](C)Oc2cccnc2)nc1 | 1% | -0.15
CC(Cc1cccc(F)c1)C(=O)N1CCC[C@@H]1C(=O)O (some centres not stated) | 2% | -0.24
CC1CCC(O)CN1C(=O)OC(C)(C)C (configuration not stated) | 11% | -1.51
COCCNC(=O)CC[C@]12CC[C@](C)(O)C[C@H]1C(C)(C)C[C@@H]2NC(=O)c1ccc(C(F)(F)F)cc1 | 9% | -1.04
Cc1nc(NC(=O)c2ocnc2C)cc(C2CC2)n1 | -11% | 1.18
O=C(NC[C@H]1CCCCS1(=O)=O)c1ccsc1 | -6% | 1.16
